Test results reported in the RNAGym collection of RNA variant scans (doi:10.1073/pnas.2313332121).
Variants at the floor of the assay are shown more often than the library holds them.

B1: TPR 5TU (parent)
chain: GGAUCUUCUCGAUCUAACAAAAAAGACAAAUCUGCCACAAAGCUUGAGAGCAUCUUCGGAUGCAGAGGCGGCAGCCUUCGGUGGCGCGAUAGCGCCAACGUUCUCAACUAUGACACGCAAAACGCGUGCUCCGUUGAAUGGAGUUUAUCAUG

Variants of: B1
Experiment: polymerase ribozyme fitness, log enrichment relative to wild type (log ratio); higher = more active; in vitro selection for triplet polymerase activity
How it was run: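 To select mutant libraries of each subunit of a heterodimeric triplet polymerase ribozyme, built by PCR and transcribed, each was annealed with a biotinylated primer, partner subunit and triplets, then incubated frozen at −7 °C. Extended constructs were gel-excised, captured on streptavidin beads and amplified by RT-PCR, in one round carried out in triplicate. Illumina sequencing of input and output libraries kept genotypes with ≥10 input reads and ≥1 read per output. Fitness is the base-2 logarithm of genotype enrichment relative to wild-type enrichment, from inverse-variance-weighted replicate averages.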

Polymerase ribozyme fitness (log ratio), ≤ -4.2:
C18G A19U C54A C69G C76G U135A G140U
C18G A21U A24G U53A U82C A121G G126U G141C
C18G A22C C36G G83C G84A G92A A137C G143C
C18G A22G G25U A41U G94A U127C C131G
C18G A23C C32A U56C G84A U111C
C18G A23G G46C U78A C87U U90G A120U A142U
C18G A23U A24G C38U U61A C87G U145A
C18G A24U A29U C85G G86A A106G
C18G A26U A37C U55A U61G G71A C93A G94A U109G
C18G A29U A47C A49U U78A C87A A98U U102G A138G A142G
C18G A30C C72A
C18G A30U C69G C85G G143C
C18G A49G G50A C96U A113U G124U
C18G A52C C79G C93G C99U
C18G C35A U55G C95U
C18G C54A U56A A73G C96U A106C G124A
C18G C54A U61A U109G A113U G140A
C18G C93U C149A
C18G G25C A28C C54G A106C U111G
C18G G25C C32U G92C A150C
C18G G46A C75A U82A C87A A115G A137C
C18G G50A C79G U134G
C18G G58A U61A C87A C93G C96G A115G G136U
C18G G83A G92C U109G C149G
C18G G88A
C18G G133U U139C U145G A150G
C18G U33C G46A C51A C87G C96U A97U A110C U145C
C18U A19C A41G U44G A49C G88A A107U U134C G136A U148A
C18U A19G A47C G48C U61G A66G A106U A107U
C18U A22G C43U U55G G94A C103U U104G A110U
C18U A23C A24C C36U G86U U130C U139C U146C
C18U A23U C93G U101G C108U A120U U135C G152A
C18U A24C G48A C51U U61A C85U
C18U A24U C51A A73C G92C A115G
C18U A26C A52C C69A A73G C85G G86U C99A U146A
C18U A26C C43U U44G G86C C99U C114U A137U
C18U A26C U55G G58C C75A U78G U90C A91G C99A
C18U A30G A41C A47C A107U A142G
C18U A37C A52G G94A C114A
C18U A41C G58A C63A A64C A91C G133A
C18U A49G U61A C69U G92A A107U
C18U C32U G84U G143A
C18U C43A G48U
C18U C149A
C18U G25A C35U A52C G83U G84A G88C C116U
C18U G46A A52G C108U U111G C118A
C18U G46A U53A U77A G80A C85A A98U U102C C132G A138G
C18U G59A C93U U104G G136U C149A
C18U G70A G80A C96A G117U
C18U G86C C125U A137C
C18U U31A G48U U55A C85A
C18U U33C A52U G86A C118A G141A
A19C A20C G71U C76A C79A C87A
A19C A21C A26C U44A C57A U61A G68A G86A G140U
A19C A21C G25U A39G G42C A66G C75G C79U C96U C123G
A19C A21U C43G G81U G94C A110G
A19C A21U U90C C95U C116G C149A
A19C A24G A26U A37C G94A U151C
A19C A24G U33G A91C C99U G126U A142C
A19C A24G U55C G65A A137G
A19C A26C A37C A60G C95U
A19C A26C C32G C75A A106G U135G
A19C A28G U61A U102C
A19C A28U G84A A97C
A19C A30G A49U A115U U145A
A19C A30U G42A C114G U139A G140U
A19C A37C A49U A60C U61G C95U C96A G124U U134A G141C
A19C A37U A49C G68U C95A C149G
A19C A39C C43U G59U A64U G83C C105A C116U U144G
A19C A39U A91U C103G C123A U130A U134G
A19C A40C G80C C87A G88C G126U
A19C A40G C87G
A19C A41C U55A U56A C85A C87G A91U
A19C A47C G50A G70C G84C A150G
A19C A49C C75A U82G U102G C118G G140C
A19C A52G C54A G68C C75A C85U C96A A122U A147C
A19C A91C
A19C C27A G92A G112U A122U G128U U130A C149A
A19C C27U U90G G128U A138G U144C
A19C C35A U61A C96A U144C
A19C C43U C72G C129G
A19C C69A C76A A91G C114U C125A
A19C C69G C72U U78G A119G C125U A137C G140C
A19C C76G G92U C103G A120U
A19C C85U A91G A110G A121U
A19C G25A U55A A113C
A19C G68C C87A
A19C G68U G84U G126A C131A
A19C U31C A52C G71C C96G G126U
A19C U31C C38A C57A G59A A89G C95G A97G C103G
A19C U45A C51A A107G A110C
A19C U45G C75U G92U U127G
A19G A21C C38A A39C C96U U145G
A19G A21U A26C C79U G83C C99A C123U
A19G A21U C75U C105G
A19G A22U C38U C79U G86U C118U G126A G141C
A19G A23U A26U G46A U55A C87A C105A G143C
A19G A26G A91U C93A A107C
A19G A29G G59U A107G U109C C118U G141A
A19G A30U C32U A39C U45C U148A
A19G A40U G65C G136C A142G
A19G A41C A47U G50C U53C C93A G128U
A19G A49C C103A C118G G141C A142G
A19G A49U G70A U148G
A19G A52C C69A C87A C125G G143A U144A A150U
A19G C27U A41U G112C G117A A120G G136C
A19G C27U C35A A115U A120G A138C U145A
A19G C75G C125U U127G
A19G G25U U56A G84U A91G A138C G143C
A19G G34U G50A C75U U146C A150U
A19G G46A G48A C69A C75U U78G C87G
A19G G58U G62A C96G C108G U151A
A19G G65C C149A
A19G G74A C76U
A19G U77A
A19U A20C A37G U55A U111A U127G
A19U A20C U33A A52G C118G G136A U151A
A19U A20U A52C U55A A60U C93A A107G U134A
A19U A21U G59A A60G C75U C87G C93U
A19U A24U U44A G84A C93A A121G C131U A142C
A19U A26U C35U U82C G83A G124A G133U U139C G141U U151A
A19U A26U C75A U77G C95A A113U
A19U A26U G42U G92U
A19U A28G G34A U55A C93A A122G G152U
A19U A28U G42C G74A C85U U148C U151A G152U
A19U A29G U53C G58A U102A A107G C149U
A19U A29U C57U G84A C96G A107U
A19U A30C C57A A73C G92A G112A
A19U A39C G80A U82G A89G A110C
A19U A39U C43U C79G C95U U130G
A19U A40G C99A G124C U146A
A19U A40U G58C G68A C87A U104G G136A G143U U151G G152A
A19U A52U C57G G58A C95U C123U G126U A138U
A19U A73G U78A G86U U101A A150C
A19U C54A U90G A107C G117U U139G
A19U C57U G80A C93U G136A A138C A147C
A19U C93U C99A G152U
A19U G25C U55A C57G C79G
A19U G34U A49C C54G C75A G86A U134G C149G
A19U G42A G67A C85G U109A A120G
A19U G42C C79A C116U G126A C132G
A19U G46A G50U C76U G80U G84A G126A
A19U G58C C87G
A19U G65A C93A U148C
A19U G70A C87U A107G U145G
A19U G74C A147C
A19U G92U G94C G143A U145A
A19U U31A A39G A60U G68C A73G C95U C105A
A19U U31A G50A C75U C93U U151G
A19U U31G G94A A113C G117U
A19U U31G U135G U148G
A19U U33A C51A G143C C149G
A19U U33G U56G
A19U U44C G74A G92C U102A C125U
A19U U45G A52U U53A C57U G68A C87G A106G G117A
A19U U55A G94A A137U
A19U U55G G70A C76A U82A G92C
A19U U56A C85G G100U U146G
A19U U77A C118U C125G A138G A142U U148A
A20C A22G C35U G42A C85U G88A C105U A120G
A20C A23G C27U G59A U82C G92U C116U
A20C A23G G81A C93A U104A A119C
A20C A23U C27G C87U C95A
A20C A24U A52U C76U G80C C85G G86U C99A G100A
A20C A28G A37G C69U C96A A107U G140U
A20C A28G G59U C85U C96G A121G
A20C A28U A39G C125A G126C
